Hit rate of the full screen: of about 260,000 compounds, about 960 (0.37%) were called active. Inconclusive means that the source gave no clear call. Such entries were picked first, then a sample of the others.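 Rule for the calls: active = mean E-selectin-positive cell signal at least 10% of the positive control, reached in at least 60% of replicates, without over 20% cell loss; inconclusive = no rule given, readout overlaps actives, possibly toxicity-flagged; inactive = the rest, including those meeting only one limit.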
Target: E-selectin (Homo sapiens) (UniProt P16581)
Experiment: inducers of endothelial E-selectin expression – imaging, HUVEC, immunofluorescence imaging, single point, primary screen (AID 686992);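 note: signal is the percent of cells scored E-selectin positive by PE staining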
Conditions: at 7.58 µM, active compounds read high, normalized: neutral wells 0, TNF-alpha wells 100
In short: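 Assay system: HUVEC primary endothelial cells. Input: 3,000 HUVEC seeded per well. Doses: one compound dose added by pin transfer. Read-out basis: % PE-positive cells. Benchmarks: TNF-alpha high, DMSO low. Detection: immunofluorescence imaging. Buffer or medium: EGM-2, gelatin.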

UniProt P16581, sequence (P16581 whole entry, looked up): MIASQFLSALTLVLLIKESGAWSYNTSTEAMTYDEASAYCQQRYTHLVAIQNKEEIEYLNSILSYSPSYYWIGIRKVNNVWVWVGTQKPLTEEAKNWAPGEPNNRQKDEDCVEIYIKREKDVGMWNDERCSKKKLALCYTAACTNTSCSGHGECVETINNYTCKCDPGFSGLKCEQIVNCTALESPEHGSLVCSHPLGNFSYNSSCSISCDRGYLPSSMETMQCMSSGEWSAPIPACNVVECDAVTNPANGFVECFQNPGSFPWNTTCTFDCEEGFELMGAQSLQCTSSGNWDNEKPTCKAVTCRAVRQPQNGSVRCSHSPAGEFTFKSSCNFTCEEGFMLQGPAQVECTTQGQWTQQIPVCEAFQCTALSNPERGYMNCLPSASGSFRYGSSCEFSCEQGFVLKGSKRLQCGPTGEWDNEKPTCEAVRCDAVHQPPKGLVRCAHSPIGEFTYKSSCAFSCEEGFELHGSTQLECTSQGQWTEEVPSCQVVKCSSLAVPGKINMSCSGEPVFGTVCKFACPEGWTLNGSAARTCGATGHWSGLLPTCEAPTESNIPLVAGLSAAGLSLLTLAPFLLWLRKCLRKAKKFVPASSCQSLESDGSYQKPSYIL

SMILES | activation
C[C@@H]1CN([C@@H](C)CO)C(=O)c2cc(NC(=O)Nc3ccc(F)cc3)ccc2O[C@@H]1CN(C)Cc1ccc(-c2ccccc2)cc1 | inconclusive: 42.2%
Cc1noc(C)c1COc1ccc(C(=O)N2CCC(C)CC2)cc1 | inconclusive: 140%
CN(C(=O)Cn1cc(C(F)(F)F)ccc1=O)c1c(N)n(Cc2ccccc2)c(=O)[nH]c1=O | inconclusive: 39.3%
CCC(=O)N1C[C@@H]2[C@H](c3ccccc31)[C@@H](CO)N2Cc1cc(F)ccc1F | inactive: 0.619%
C[C@H](CO)N1C[C@H](C)[C@@H](CN(C)Cc2ccc(C(F)(F)F)cc2)Oc2c(NC(=O)C3CCCCC3)cccc2C1=O | inconclusive: 38.3%
Cc1cc(C)c(OCC(=O)OCC(=O)NCc2cccs2)c(C)c1 | inconclusive: 43.9%
O=C(C1CC12CCCC2)N1CCC(CO)(Cc2ccccc2Cl)CC1 (configuration not stated) | inconclusive: 76.2%
COCCCNC(=O)c1ccc2c(=O)n(Cc3ccc(Cl)cc3)c(=S)[nH]c2c1 | active: 48.6%
Cc1noc(C)c1NC(=O)N(C)C[C@@H]1OCCCC[C@H](C)Oc2ccc(NC(=O)c3ccccc3)cc2C(=O)N([C@@H](C)CO)C[C@H]1C | inactive: -0.0955%
CCC(=O)N(C)C[C@@H]1Oc2ncc(C3=CCCC3)cc2C(=O)N([C@@H](C)CO)C[C@H]1C | inconclusive: 61.8%
CC1=C(CCN2CCN(C(C)C)C(CCO)C2)C(C)(C)CCC1 (configuration not stated) | inconclusive: 27.2%
COc1cc(NC(=O)C/C(C)=N/NC(=O)C2CCCCC2)c(OC)cc1Cl | active: 56%
CCCC(=O)Nc1ccc(C(=O)COC(=O)c2c(C)noc2C)cc1 | inconclusive: 32.7%
Cc1ccc(/C(=N/Nc2ncnc3ccccc23)C(=O)O)cc1 | active: 51.3%
Cc1[nH]c2ccccc2c1C(=O)CN1C(=O)C(=O)N(CCC2=CCCCC2)C1=O | inconclusive: 44.1%
O=C(COC(=O)c1ccccc1NCCO)NNC(=O)c1cccs1 | active: 428%
C[C@H](CO)N1C[C@H](C)[C@@H](CN(C)S(=O)(=O)c2cccs2)Oc2ccc(NC(=O)Cc3ccccc3)cc2C1=O | inconclusive: 36.4%
COc1ccc(S(=O)(=O)N(C)C[C@H]2Oc3ccc(NC(=O)Nc4ccc5c(c4)OCO5)cc3CC(=O)N([C@H](C)CO)C[C@H]2C)cc1 | active: 36.3%
Cc1ccc(S(=O)(=O)N(C)C[C@@H]2Oc3ccc(NC(=O)C4CC4)cc3CC(=O)N([C@@H](C)CO)C[C@H]2C)cc1 | inactive: 0.117%
Cc1ccc(C)c(NS(=O)(=O)c2ccc3c(c2)NC(=O)CO3)c1 | inconclusive: 29.4%
Cc1[nH]c2ccccc2c1/C=N/NC(=O)c1cccc([N+](=O)[O-])c1 | active: 56.9%
COc1ccccc1OCCNC(=O)c1ccco1 | inconclusive: 29.7%
C[C@H](CO)N1C[C@H](C)[C@@H](CN(C)C(=O)C2CCCCC2)OCCCC[C@H](C)Oc2ccc(NC(=O)Cc3ccccc3)cc2C1=O | inactive: 0.253%
COc1ccc(S(=O)(=O)N(C)C[C@@H]2Oc3ccc(NC(=O)c4ccncc4)cc3C(=O)N([C@@H](C)CO)C[C@@H]2C)cc1 | active: 36.7%

SMILES | activation
C[C@@H]1CN([C@H](C)CO)C(=O)Cc2cc(NC(=O)Cc3cn(C)c4ccccc34)ccc2O[C@H]1CN(C)Cc1ccc(C(F)(F)F)cc1 | active: 152%
Cc1nn2c(-c3ccncc3)ccnc2c1Cl | inactive: 2.58%
COc1ccc2c3c([nH]c2c1)[C@@H](CO)N(C(=O)NC(C)C)CC31CCN(Cc2ccc(F)cc2)CC1 | inconclusive: 48.3%
CCC(=O)N1CC2(C1)CN(Cc1ccc(Cl)cc1)[C@@H](CO)c1[nH]c3cc(OC)ccc3c12 | inactive: -0.834%
Cc1cc(NC(=O)CSc2nc(=O)n3cc(Cl)ccc3n2)no1 | inconclusive: 31.7%
O=C1CCn2c1c(O)c1ccccc1c2=O | inconclusive: 35.1%
C[C@H](CO)N1C[C@H](C)[C@H](CN(C)Cc2ccncc2)Oc2ncc(C#CC3(O)CCCC3)cc2C1=O | inconclusive: 26.7%
C[C@H](CO)N1C[C@H](C)[C@@H](CN(C)C(=O)Nc2cccc3ccccc23)Oc2ccc(NS(=O)(=O)c3ccc(Cl)cc3)cc2CC1=O | inconclusive: 31.9%
O=C(Nc1ccccc1Cl)c1ccc2nc(N3CCOCC3)sc2c1 | inconclusive: 67.7%
CN(C)CC(=O)N1CC[C@@H]2[C@@H](CO)N(C)c3ccc(Br)cc3[C@@H]21 | inconclusive: 35.9%
COc1ccccc1NC(=O)c1ccc(S(=O)(=O)N(C)c2ccccc2OC)cc1 | inactive: 0.605%
N#Cc1cccc(-c2ccc(C3[C@@H]4CN(C(=O)c5cccnc5)C[C@H]3N4)cc2)c1 (some centres not stated) | inconclusive: 58.2%
O=C(c1cccc(F)c1)N1CC[C@@H]2[C@H](CO)Nc3ccc(-c4cccc(F)c4)cc3[C@@H]21 | inactive: 0.696%
c1ccc(SCc2nc3ccccc3s2)nc1 | inactive: 0.394%
C=CCNC(=O)c1cnc(-c2ccccc2)nc1-c1ccccc1 | inconclusive: 62.9%
C[C@H]1CN([C@@H](C)CO)C(=O)c2cc(NC(=O)C3CCCCC3)ccc2O[C@H]1CN(C)Cc1ccc(C(=O)Nc2ccccc2N)cc1 | active: 29.2%
COCC(C)NC(=O)c1cc(OC)cc(OC)c1 (configuration not stated) | inconclusive: 46.8%
COc1ccc(S(=O)(=O)N2CCC(C(=O)N[C@H](C(=O)NCc3ccccc3)C(C)C)CC2)cc1 | inactive: 0.0515%
CC(C)CCNC(=O)c1onc(CSc2ccc(F)c(F)c2)c1C(=O)NCCC(C)C | inactive: 0.0225%
CCCNC(=O)C[C@H]1C[C@H]2c3cc(NC(=O)c4cccnc4)ccc3O[C@H]2[C@H](CO)O1 | inactive: 0.282%
CCCCN(C)C(=O)Cn1ncc2c3ccccc3n(CCC)c2c1=O | inconclusive: 30.9%
Cc1c(CC(=O)NCCC(=O)O)c(=O)oc2cc3occ(-c4ccccc4)c3cc12 | active: 40.1%
Cc1ncc(CO)c(/C=N/NC(=O)c2ccccc2Br)c1O | inconclusive: 54.8%
